Measurements from the supplement of paper PMC12645437, “Orthogonal IMiD-Degron Pairs Induce Selective Protein Degradation in Cells” (ACS Chemical Biology, 2025).
This is one part of the list.

biological target: no compound (DMSO); assay: log2 fold change of degron read counts, EGFP-low vs EGFP+ sorted cells; higher = lower degron-EGFP level without compound (poor expression or instability); details: compound: DMSO control; 18 h
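Also: jurkat cells carrying a lentiviral library of mutant zinc finger degrons fused to EGFP plus mCherry, mCherry+ cells FACS sorted, degron abundance counted by next-generation sequencing.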

**Q.** For FTCNQCGHCFTQKGNLLRHIKL, which “log2 fold change of degron read counts” value is on record?
**A.** -0.53

**Q.** Which “log2 fold change of degron read counts” value does the source give for FSCDVCGAQFTQKGNLLRHIKL here?
**A.** -2.2

**Q.** How did the “log2 fold change of degron read counts” value turn out when LDCPICGFVCTQKGNLLRHIKL was run?
**A.** 0.272

**Q.** FLCNQCGHYFTQKGNLLRHIKL was tested. Which “log2 fold change of degron read counts” value did it give?
**A.** 0.925

**Q.** With FFCEICGAHFTQKGNLLRHIKL as the sequence, how does the “log2 fold change of degron read counts” value read?
**A.** -0.388

**Q.** How did the “log2 fold change of degron read counts” value turn out when FECDVCGARFTQKGNLLRHIKL was run?
**A.** -1.99

**Q.** Which “log2 fold change of degron read counts” value does the source give for FCCSVCGHSFTQKGNLLRHIKL here?
**A.** -0.576

**Q.** For FICPQCGAPFTQKGNLLRHIKL, which “log2 fold change of degron read counts” value is on record?
**A.** -0.576

**Q.** For FNCDQCGAHFTQKGNLLRHIKL, which “log2 fold change of degron read counts” value is on record?
**A.** -0.895

**Q.** With FVCEICGRPFTQKGNLLRHIKL as the sequence, how does the “log2 fold change of degron read counts” value read?
**A.** -1.44

**Q.** For FMCSVCGHLFTQKGNLLRHIKL, which “log2 fold change of degron read counts” value is on record?
**A.** 0.155

**Q.** With FCCSVCGHGFTQKGNLLRHIKL as the sequence, how does the “log2 fold change of degron read counts” value read?
**A.** -0.225

**Q.** How did the “log2 fold change of degron read counts” value turn out when LSCNQCGFFCTQKGNLLRHIKL was run?
**A.** 1.55

**Q.** How did the “log2 fold change of degron read counts” value turn out when LHCEICGFNCTQKGNLLRHIKL was run?
**A.** 0.152

**Q.** Which “log2 fold change of degron read counts” value does the source give for FNCPVCGAFFTQKGNLLRHIKL here?
**A.** 0.451

**Q.** How did the “log2 fold change of degron read counts” value turn out when FMCEVCGAKFTQKGNLLRHIKL was run?
**A.** -1.73

**Q.** How did the “log2 fold change of degron read counts” value turn out when FICEICGRVFTQKGNLLRHIKL was run?
**A.** -0.722

**Q.** Which “log2 fold change of degron read counts” value does the source give for FECNQCGHIFTQKGNLLRHIKL here?
**A.** -0.558

**Q.** How did the “log2 fold change of degron read counts” value turn out when FDCDQCGAHFTQKGNLLRHIKL was run?
**A.** -2.12

**Q.** FLCPICGANFTQKGNLLRHIKL was tested. Which “log2 fold change of degron read counts” value did it give?
**A.** -0.26

**Q.** How did the “log2 fold change of degron read counts” value turn out when FQCPICGANFTQKGNLLRHIKL was run?
**A.** 0.34

**Q.** With FACNQCGRQFTQKGNLLRHIKL as the sequence, how does the “log2 fold change of degron read counts” value read?
**A.** -0.406

**Q.** How did the “log2 fold change of degron read counts” value turn out when FFCDICGARFTQKGNLLRHIKL was run?
**A.** -0.418

**Q.** How did the “log2 fold change of degron read counts” value turn out when FKCNVCGAYFTQKGNLLRHIKL was run?
**A.** -0.669

**Q.** How did the “log2 fold change of degron read counts” value turn out when FVCDQCGAHFTQKGNLLRHIKL was run?
**A.** -1.53

**Q.** FDCDICGADFTQKGNLLRHIKL was tested. Which “log2 fold change of degron read counts” value did it give?
**A.** -0.58

**Q.** With LHCNQCGFRCTQKGNLLRHIKL as the sequence, how does the “log2 fold change of degron read counts” value read?
**A.** 0.827

**Q.** How did the “log2 fold change of degron read counts” value turn out when FNCEQCGAPFTQKGNLLRHIKL was run?
**A.** -1.65

**Q.** Which “log2 fold change of degron read counts” value does the source give for FTCEQCGATFTQKGNLLRHIKL here?
**A.** -2.67

**Q.** Which “log2 fold change of degron read counts” value does the source give for FHCNVCGALFTQKGNLLRHIKL here?
**A.** -0.0333

**Q.** For FQCDVCGAQFTQKGNLLRHIKL, which “log2 fold change of degron read counts” value is on record?
**A.** -1.92

**Q.** For FSCNICGACFTQKGNLLRHIKL, which “log2 fold change of degron read counts” value is on record?
**A.** -0.721

**Q.** FNCNICGASFTQKGNLLRHIKL was tested. Which “log2 fold change of degron read counts” value did it give?
**A.** -0.587

**Q.** For FMCPICGHEFTQKGNLLRHIKL, which “log2 fold change of degron read counts” value is on record?
**A.** 0.0313

**Q.** How did the “log2 fold change of degron read counts” value turn out when FRCEICGRFFTQKGNLLRHIKL was run?
**A.** -0.128

**Q.** How did the “log2 fold change of degron read counts” value turn out when FTCEICGHKFTQKGNLLRHIKL was run?
**A.** -1.38

**Q.** How did the “log2 fold change of degron read counts” value turn out when LICNQCGFLCTQKGNLLRHIKL was run?
**A.** 1.18

**Q.** Which “log2 fold change of degron read counts” value does the source give for FSCNQCGHCFTQKGNLLRHIKL here?
**A.** -0.112

**Q.** For FRCEQCGAHFTQKGNLLRHIKL, which “log2 fold change of degron read counts” value is on record?
**A.** -2.25

**Q.** FVCEQCGAQFTQKGNLLRHIKL was tested. Which “log2 fold change of degron read counts” value did it give?
**A.** -2.77

**Q.** For FCCNICGADFTQKGNLLRHIKL, which “log2 fold change of degron read counts” value is on record?
**A.** -0.524

**Q.** FGCNICGAKFTQKGNLLRHIKL was tested. Which “log2 fold change of degron read counts” value did it give?
**A.** -0.268

**Q.** For FNCSVCGHRFTQKGNLLRHIKL, which “log2 fold change of degron read counts” value is on record?
**A.** 0.193

**Q.** Which “log2 fold change of degron read counts” value does the source give for FNCEQCGAKFTQKGNLLRHIKL here?
**A.** -2.8

**Q.** LHCPICGFWCTQKGNLLRHIKL was tested. Which “log2 fold change of degron read counts” value did it give?
**A.** 1.69

**Q.** With FHCDICGAGFTQKGNLLRHIKL as the sequence, how does the “log2 fold change of degron read counts” value read?
**A.** -1.08

**Q.** FLCEICGAAFTQKGNLLRHIKL was tested. Which “log2 fold change of degron read counts” value did it give?
**A.** -1.6

**Q.** Which “log2 fold change of degron read counts” value does the source give for FYCPQCGACFTQKGNLLRHIKL here?
**A.** 0.00336

**Q.** With FKCPVCGALFTQKGNLLRHIKL as the sequence, how does the “log2 fold change of degron read counts” value read?
**A.** -0.444

**Q.** How did the “log2 fold change of degron read counts” value turn out when FDCNVCGAGFTQKGNLLRHIKL was run?
**A.** -0.947
